Each structure is given as a SMILES string. The whole screen tested about 48,000 compounds, of which about 120 (0.25%) were called active. Another 4% or so got no clear call; they are omitted. The call rests on the fitted dose curve; in most records, active means well fitted activation curve with a large enough effect; inconclusive means small, poorly fitted or top-dose-only effect, or another doubt; inactive means no such curve, though single readings can be large or run the other way. Some of the results follow.

A short description of the test: Primary qHTS for Identification of Small Molecule Activators of Huntingtin-Antisense Promoter Activity. Further: nearly all actives have a fitted effect of over 55% in size. The following applies: HEK293 HTT-AS promoter firefly luciferase reporter, 24 h; series mostly up to 57.5 µM; activity change, positive = activation: at the top concentration. In a few lines: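 HEK293 Fluc reporter, 2,500 cells/well, 24 h pre-culture; cpds up to 57.5 uM final, 24 h 37 degrees C; Dual-Glo, 10 min RT; normalized vehicle = 0%, zero RLU = -100%.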
On the technique in general: In qHTS, concentration-response curves come from the screen itself.
As to `Cc1ccc(S(=O)(=O)N2CCN(Cc3cc(Br)ccc3O)CC2)cc1`, the “activity change, positive = activation” value was inactive: -27.4%.

As for `CCC(=O)N1CCc2cc(Br)cc(S(=O)(=O)N3CCCC(C(=O)NCc4ccc(F)cc4)C3)c21` (stereo unspecified), the “activity change, positive = activation” value is inactive: -16.2%. Then `Cn1cc(S(=O)(=O)N2CCCCCC2)cc1C(=O)N1CCN(c2cccc(C(F)(F)F)c2)CC1`, with inactive: -39.3%; and `N#Cc1ccccc1NC(=O)C(=O)NCCc1csc(-c2ccc(C(F)(F)F)cc2)n1`, with inactive: -5.15%.

`O=C1CSC2(C(=O)N(Cc3ccccc3)c3ccccc32)N1c1cccc(F)c1` (stereo unspecified): the “activity change, positive = activation” value was inactive: -33.8%. In the case of `CCc1ccc(NC(=O)COC(=O)CCCC2=NS(=O)(=O)c3ccccc3N2)cc1` it was inactive: -10.4%. Then `Cc1cc(C)c(NC(=O)CSc2nc3ccccc3c3nc(CCn4cncc4C)nn23)c(C)c1`, with inactive: -35%; and `O=S(=O)(c1ccc(Cl)cc1)c1nc(-c2ccccc2Br)oc1NCc1ccccc1`, with inactive: -9.81%. As to `COc1ccc(CCNC(=O)CSc2nc3nc(C)c(Cc4ccc(C)cc4)c(C)n3n2)cc1OC`, the “activity change, positive = activation” value was inactive: -38.6%. Take `CCN1CCN(C(=O)c2ccc3c(c2)N(Cc2cccc(Cl)c2)C(=O)c2ccccc2S3=O)CC1` (stereo unspecified): the “activity change, positive = activation” value was inactive: -3.22%. With `Cc1ccc(C)c(OCCn2c(C3CC(=O)N(Cc4ccc(F)cc4)C3)nc3ccccc32)c1` (stereo unspecified), the “activity change, positive = activation” value is inactive: -42.9%. Then `CCN(CC)CCCNc1cc(-c2ccccc2)nc(C)n1`, with inactive: -5.12%. Then `CCOc1ccc2nc(N3CCN(C(=O)c4ccc(S(=O)(=O)CC)cc4)CC3)sc2c1`, with inactive: -30.7%; and `Cc1ccc(/C=C/C(=O)Nc2nc(-c3cccs3)ns2)cc1`, with inactive: -18.6%; and `COc1ccc(-n2cc(C(=O)N(CCN(C)C)Cc3ccccc3)c3ccccc3c2=O)cc1`, with inactive: -9.79%. In the case of `COc1cc(C(=O)N(Cc2ccc(F)cc2)Cc2ccco2)cc(OC)c1OC` it was inactive: -26.1%; in that of `C=C(CC)C(=O)c1ccc(OCC(=O)O)c(Cl)c1Cl`, inactive: -42.1%; in that of `CCn1c(C)c(C)c2cc(C(=O)NCCCN3CCCCC3C)ccc21` (stereo unspecified), inactive: -0.828%. Consider `COc1ccc(CNC(=O)CS(=O)Cc2nc(-c3ccc(OC)c(OC)c3)oc2C)cc1` (stereo unspecified), for which the “activity change, positive = activation” value is inactive: -4.9%. Then `COc1ccc(Cn2c(=O)[nH]c3cc(C(=O)NCCC(C)C)ccc3c2=O)cc1`, with inactive: -2.29%. In the case of `Cc1ccc(N(CC(=O)Nc2cccc(Cl)c2C)S(=O)(=O)c2c(C)noc2C)cc1` it was inactive: -27.6%; in that of `COc1cc(OC)cc(C(=O)Nc2cc(-c3nc4ccccc4[nH]3)ccc2C)c1`, inactive: -20.4%. In the case of `COC(=O)c1c(SC)nc2ccccc2c1OCc1ccc(Br)cc1` it was inactive: -23.7%; in that of `CCOC(=O)C1CCCN(c2nc3c(S(=O)(=O)c4ccc(Br)cc4)nnn3c3ccsc23)C1` (stereo unspecified), inactive: -5.94%; in that of `CCOC(=O)CN1CCCC1=O`, inactive: -4.05%. Consider `OC[C@H]1O[C@@H](O[C@@H]2[C@@H](CO)O[C@](O)(CO)[C@H]2O)[C@H](O)[C@@H](O)[C@H]1O`, for which the “activity change, positive = activation” value is inactive: -4.29%.

In the case of `Cc1ccccc1CNC(=O)c1nn(-c2ccccc2F)nc1CO`, the “activity change, positive = activation” value is inactive: -25.2%.

Take `O=c1c2sccc2n(Cc2cc(=O)n3ccccc3n2)c(=O)n1-c1cc(F)ccc1F`: the “activity change, positive = activation” value was inactive: -19%. Then `CCn1nc(-c2ccccc2)c(-c2ccccc2)c(C(=O)Nc2ccc(S(N)(=O)=O)cc2)c1=O`, with inactive: -13.3%; and `COc1cccc2c1Oc1ncccc1N(C(=O)CCC(=O)NCCC(C)C)C2`, with inactive: -6.76%; and `COc1ccc(C(=O)Nc2ccc(-c3nnc4n3CCCCC4)cc2)cc1`, with inactive: -19.2%.

Turning to `COc1ccc(-c2n[nH]c3c2C(c2ccc(Cl)cc2Cl)NC3=O)cc1` (stereo unspecified), the “activity change, positive = activation” value is inactive: -40.9%.

For `CCN(CCCNC(=O)c1ccc(Sc2ccc(C)cc2)c(NC(C)=O)c1)c1cccc(C)c1`, the “activity change, positive = activation” value was inactive: -31.2%.

Consider `COc1ccc(-n2c(=O)c3c(c4cc(OC)ccc4n3C)n(CC(=O)NCC3CCCO3)c2=O)cc1` (stereo unspecified), for which the “activity change, positive = activation” value was inactive: -21.4%. In the case of `COc1ccc(NC(=O)Cn2c(=O)n(-c3cccc(C)c3)c(=O)c3c2c2cc(C)ccc2n3C)cc1OC` it was inactive: -8.34%; in that of `CCOc1cccc(C(=O)Nc2ccc3oc(-c4ccc(C(C)(C)C)cc4)nc3c2)c1`, inactive: -31.3%.

On to `Cc1ccc2oc(-c3ccc(C)c(NC(=O)c4ccc5c(c4)OCCO5)c3)nc2c1`, for which the “activity change, positive = activation” value is inactive: -1.11%. Then `CC(CCO)Nc1nc2c(c(=O)n(C)c(=O)n2C)n1Cc1ccc(Br)cc1` (stereo unspecified), with inactive: -3.41% [at 11.5 µM, percent change from vehicle, -100% = no light]; and `C#CCSc1nc2sc3c(c2c(=O)n1-c1cccc(OC)c1)CCN(C(C)=O)C3`, with inactive: -30.5%; and `COc1cc(Cl)c(NC(=O)c2cc(S(=O)(=O)N3CCOCC3)cn2C)c(OC)c1`, with inactive: -13.7%. Then `CCOC(=O)c1ccc(-c2ccc(/C=C(\C#N)C(=O)Nc3c(C)cccc3Cl)o2)cc1`, with inactive: -8.53%. `O=S(=O)(NCc1ccc(F)cc1)c1ccc2[nH]c3c(c2c1)CCCCC3`: the “activity change, positive = activation” value was inactive: -34%. In the case of `CCOC(=O)c1nc(Nc2ccc(OC)cc2)c2ccccc2n1` it was inactive: 5.45%; in that of `Cc1ccccc1Nc1c(-c2cccc(O)c2)nc2ccc(Br)cn12`, inactive: -19.7%; in that of `CC(C)CCNC(=O)c1ccc(Cn2c(=O)c3cccn3c3cccnc32)cc1`, inactive: -20%.

On to `Cc1ccc(-c2nn(-c3cccc([N+](=O)[O-])c3)c3c2cnc2ccc(F)cc23)cc1`, for which the “activity change, positive = activation” value was inactive: -7.86%. As for `Cc1cccc(Nc2nc(Nc3cccc(C)c3)nc(N3CCOCC3)n2)c1`, the “activity change, positive = activation” value was inactive: -29.5%. In the case of `Cc1cc2c(n1-c1ccc(C(=O)NCC(C)c3ccccc3)cc1)CCCC2` (stereo unspecified) it was inactive: 8.71%. Then `CCOc1ccc(CNC(=O)c2ccc3c(c2)sc2nc(-c4ccc(OC)cc4)cn23)cc1`, with inactive: -23%; and `COc1cc(OC)c(NC(=O)CSC2=Nc3ccccc3N=C(c3ccc(F)cc3)C2)cc1Cl`, with inactive: -17.5%; and `Cc1ccc(CNC(=O)c2cc(S(=O)(=O)N3CCCC(C)C3)cn2C)cc1` (stereo unspecified), with inactive: -29.3%.

As for `Cc1sc(C2C(C#N)=C(N)N(c3cccc(Cl)c3)C3=C2C(=O)CCC3)cc1CN1CCOCC1` (stereo unspecified), the “activity change, positive = activation” value was inactive: -17.1%. Then `O=C(CCC1N=C2c3ccccc3N=C(SCc3ccccc3Cl)N2C1=O)NCc1cccs1` (stereo unspecified), with inactive: -23.3%; and `O=C(NCc1ccccc1F)C(=O)NCC(c1cccs1)S(=O)(=O)c1cccs1` (stereo unspecified), with inactive: -28%; and `CC(C)Cc1ccc(S(=O)(=O)Nc2ccc3[nH]c(=O)[nH]c3c2)cc1`, with inactive: -34.2%.

In the case of `CCOc1ccc(OCC)c(NC(=O)c2cnc3c(-c4ccccc4)c(C)nn3c2C)c1`, the “activity change, positive = activation” value was inactive: -4.53%.

For the compound `COC(=O)c1cc2oc(C)cc2n1Cc1cccc(Cl)c1`, the “activity change, positive = activation” value is inactive: 0.687%. On to `Cc1ccc(-n2c(=O)c3c(c4cc(C)ccc4n3C)n(CC(=O)NCCC3=CCCCC3)c2=O)cc1`, for which the “activity change, positive = activation” value is inactive: -11.8%. Then `O=c1c2oc3ccccc3c2n(Cc2cccc(Cl)c2)c(=O)n1Cc1ccc2c(c1)OCO2`, with inactive: -27.2%; and `COc1ccccc1OCC(=O)NCC1(N2CCOCC2)CCCCC1`, with inactive: -10%; and `O=C(NCc1cccc(Cl)c1)c1ccc(CS(=O)Cc2ccccc2Cl)o1` (stereo unspecified), with inactive: -27.4%. Then `CC(C)(C)NC(=O)Cn1cc(S(=O)(=O)Cc2ccc(F)cc2)c2ccccc21`, with inactive: -13.7%. In the case of `CCCOc1ccc(-c2nonc2NC(=O)COc2ccc(C)cc2)cc1OCCC`, the “activity change, positive = activation” value is inactive: 10.7%. Then `COCCn1c(SCC(=O)c2ccc(OC)cc2)nc2cc(C(=O)NC3CCCC3)ccc2c1=O`, with inactive: 3.91%.

For `CC(=O)c1c(C)oc2c(Cl)cc(NS(=O)(=O)c3cc(C)c(C)cc3C)cc12`, the activity change, positive = activation is inactive: 14.9% [at 11.5 µM, percent change from vehicle, -100% = no light]. Then `CCOC(=O)CNC(c1ccccc1)c1cc(Br)ccc1NC(=O)c1ccc(Cl)cc1` (stereo unspecified), with inactive: 5.03% [at 11.5 µM, percent change from vehicle, -100% = no light]; and `Cc1ccc(S(=O)(=O)c2nnn(CC(=O)Nc3ccccc3C)c2N)cc1C`, with inactive: -9.18%; and `CCC(=O)Nc1ccc2nc(SCCOc3cccc(C)c3)sc2c1`, with inactive: -29.9%. Then `Cc1ccn2c(=O)c(C(=O)Nc3ccc(F)c(C(F)(F)F)c3)cnc2c1`, with inactive: 23.7%; and `O=C(Cn1cc(S(=O)(=O)c2ccc(F)cc2)c(=O)c2cc3c(cc21)OCO3)Nc1ccccc1`, with inactive: -18.7%. For `Cc1oc(-c2ccccc2F)nc1CN1CCC(C(=O)NCCc2ccc(Cl)cc2)CC1`, the “activity change, positive = activation” value is inactive: -24.9%.

As for `CCOC(=O)c1cc(=O)c2c(OCC(COc3cccc4oc(C(=O)OCC)cc(=O)c34)OC(=O)[C@@H](N)CCCCN)cccc2o1`, the “activity change, positive = activation” value is inactive: -2.85%.

For `Cc1cccc(NC(=O)C(=O)NCC(c2cccnc2)N2CCc3ccccc32)c1C` (stereo unspecified), the “activity change, positive = activation” value was inactive: -20.7%. With `CCOc1ccc(-c2nonc2NC(=O)c2oc3ccc(Cl)cc3c2C)cc1`, the “activity change, positive = activation” value was inactive: -14.9%. As for `COc1cccc(NC(=O)c2oc3ccccc3c2NC(=O)COc2ccccc2C)c1`, the “activity change, positive = activation” value is inactive: 26.2%. `COC(=O)c1ccccc1NC(=O)CCCn1nc(C)c2sc3ccccc3c2c1=O`: the “activity change, positive = activation” value was inactive: -5.31%. In the case of `COc1ccc(-c2nnn3c2nc(NCc2ccccc2)c2ccccc23)cc1` it was inactive: 18.8%; in that of `CC1=C(C(=O)Nc2ccc(C)cc2C)C(CC(C)C)n2nc(SCc3ccccc3C)nc2N1` (stereo unspecified), inactive: -4.97%.

As to `O=c1oc2c(F)cc(F)cc2cc1S(=O)(=O)c1ccc(F)cc1`, the “activity change, positive = activation” value was inactive: -58.1%. Then `Cc1nc(C)c(CCNS(=O)(=O)c2ccc(C)c(C)c2)s1`, with inactive: -24.7%. Then `CCOc1ccccc1NC(=O)c1c(NCc2ccc(C)o2)sc2c1CCCCC2`, with inactive: -12.1%; and `Cc1ccc(Cc2nc3ccccc3nc2SCC(=O)N2CCCCC2)cc1`, with inactive: -29.5%. In the case of `CCOc1ccc(N(CC)C(=O)c2cc3c(=O)oc4ccccc4c3s2)cc1` it was inactive: -12.7%.

For `CCOc1ccc(CN2CCN(S(=O)(=O)c3ccc(Cl)cc3)CC2)cc1`, the “activity change, positive = activation” value is inactive: -5.33%.

Regarding `NC(=O)c1ncn([C@@H]2O[C@H](CO)[C@@H](O)[C@@H]2O)c1N`, the “activity change, positive = activation” value was inactive: 1.16%.

In the case of `Cn1c(CNc2ccc(C(=N)N)cc2)nc2cc(C(=O)N(CCC(=O)O)c3ccccn3)ccc21`, the “activity change, positive = activation” value was inactive: -5.95% [at 25.1 µM, percent change from vehicle, -100% = no light].

For the compound `CNC1CCCN(c2c(F)cc3c(=O)c(C(=O)O)cn(C4CC4)c3c2OC)C1` (stereo unspecified), the activity change, positive = activation entry is “inactive”. For `COc1ccc(C)cc1NC(=O)c1ccc2c(c1)N(Cc1cccc(Cl)c1)C(=O)c1ccccc1S2=O` (stereo unspecified), the “activity change, positive = activation” value was inactive: -2.09%. Then `Cc1ccc(C)c(NC(=O)c2ccc(=O)n(Cc3ccc(F)cc3)c2)c1`, with inactive: -35.1%; and `Clc1cccc(N2CCN(c3nc4ccccc4c4nc(-c5cccnc5)nn34)CC2)c1`, with inactive: -5.59%. In the case of `CC(=O)N1c2ccc(S(=O)(=O)N3CCCCCC3)cc2CC1C(=O)NCc1cccc(F)c1` (stereo unspecified) it was inactive: -2.4%.
